Our source for the binding values is PMC3660575.

The chains behind the UniProt entries cited, without tags or fusion partners. Where a name states a change or a piece, a line headed by the entry shows the natural chain unless it says otherwise. Residues count along the entry.
UniProt Q99523: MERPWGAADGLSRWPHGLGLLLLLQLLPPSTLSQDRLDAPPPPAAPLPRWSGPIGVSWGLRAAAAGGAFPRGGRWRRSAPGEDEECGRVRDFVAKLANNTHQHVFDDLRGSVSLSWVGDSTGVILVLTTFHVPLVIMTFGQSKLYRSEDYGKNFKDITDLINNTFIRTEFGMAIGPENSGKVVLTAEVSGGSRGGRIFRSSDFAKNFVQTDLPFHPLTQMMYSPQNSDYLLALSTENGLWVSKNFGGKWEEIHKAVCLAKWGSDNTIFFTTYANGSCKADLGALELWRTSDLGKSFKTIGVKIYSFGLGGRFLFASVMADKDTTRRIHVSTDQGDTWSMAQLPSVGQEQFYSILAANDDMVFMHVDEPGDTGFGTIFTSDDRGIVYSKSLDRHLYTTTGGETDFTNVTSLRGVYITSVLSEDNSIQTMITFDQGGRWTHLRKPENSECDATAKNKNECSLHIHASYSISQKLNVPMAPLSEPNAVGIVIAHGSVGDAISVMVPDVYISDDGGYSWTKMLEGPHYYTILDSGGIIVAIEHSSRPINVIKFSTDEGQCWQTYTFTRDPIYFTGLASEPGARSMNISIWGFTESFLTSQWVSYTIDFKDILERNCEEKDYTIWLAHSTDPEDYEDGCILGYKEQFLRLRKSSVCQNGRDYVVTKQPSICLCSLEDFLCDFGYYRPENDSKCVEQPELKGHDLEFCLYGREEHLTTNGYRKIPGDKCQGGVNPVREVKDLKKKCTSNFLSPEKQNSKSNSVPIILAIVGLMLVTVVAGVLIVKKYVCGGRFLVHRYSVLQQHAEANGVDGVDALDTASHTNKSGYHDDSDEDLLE
full-length sortilin-myc/His: residues 78-831 of Q99523
Sort 78-385-CFP: residues 78-385 of Q99523
Sort 385-786-CFP: residues 385-786 of Q99523
Sort 756-831-CFP: residues 756-831 of Q99523
Sort 779-831-CFP: residues 779-831 of Q99523

Experiment [1] concerns the target full-length sortilin-myc/His (human) (UniProt Q99523). Description: co-IP; HEK293 cells co-transfected with both constructs; RIPA lysates (250 µg) precleared, incubated with protein G bead-immobilised antibody at 4°C overnight, five washes, Western blot; rabbit or mouse IgG and CFP or YFP as negative controls.
Experiment [2] has as its target APP695 (UniProt P05067). The experiment is described as above.
Experiment [3] addresses APP 1-287-YFP (human) (UniProt P05067). The description is as above.
The target in experiment [4] is APP695 (UniProt P05067). Description: co-IP; competition binding assay: lysates of HEK293 cells transfected separately with APP695 or a sortilin-CFP construct; APP695 lysate pre-incubated 1 h at 4°C with competitor or control (BSA or scramble peptide, 10 µM), then combined with the sortilin lysate for 2 h at 4°C; precipitated with anti-APP, blotted with goat anti-GFP.

Experiment [5] has as its target APP770-YFP (human) (UniProt P05067). Kind of experiment: co-IP; HEK293 cells co-transfected with both constructs; RIPA lysates (250 µg) precleared, incubated with protein G bead-immobilised antibody at 4°C overnight, five washes, Western blot; rabbit or mouse IgG and CFP or YFP as negative controls.
Experiment [6] deals with APP 1-141-YFP (human) (UniProt P05067). The description is as above.

Results are given in words; binding and its absence hold for the method and conditions named. In cells and extracts the contact can be indirect. Some entries that bind do so weakly or less than the wild type.

With “APP 1-141-YFP (from UniProt P05067 18-141) (domain or fragment)”, the binding entry in experiment [1] is “binds”.

For “APP 1-287-YFP (from UniProt P05067 18-287) (domain or fragment)”, in experiment [1], the binding result was “binds”.

“APP 1-542-YFP (from UniProt P05067 18-542) (domain or fragment)”: the binding result in experiment [1] was “binds”.

As for “APP 713-770-YFP (from UniProt P05067 713-770) (domain or fragment)”, the binding result in experiment [1] is on record as “binds”.

For “Sort 78-385-CFP (from UniProt Q99523-1 78-385) (domain or fragment)”, the binding result in experiment [2], in experiment [3] and in experiment [4] was “binds” each time.

On to “Sort 385-786-CFP (from UniProt Q99523-1 385-786) (domain or fragment)”, for which, in experiment [2], the binding result is “no binding”.

Consider “Sort 756-831-CFP (from UniProt Q99523-1 756-831) (domain or fragment)”, for which the binding result in experiment [2] is given as “binds”.

For the substance “Sort 779-831-CFP (from UniProt Q99523-1 779-831) (domain or fragment)”, the binding result in experiment [2] is given as “binds”.

Turning to “full-length sortilin-myc/His (from UniProt Q99523-1 78-831)”, the binding result in experiment [5] and in experiment [6] was “binds” throughout.
